# PubChem BioAssay AID624296 (National Center for Advancing Translational Sciences (NCATS), 2012)
# The whole screen tested about 350,000 compounds, of which about 9,900 (2.8%) were called active. The shares of active, inactive and inconclusive entries below differ from those in the screen. The call rests on the fitted dose curve; in most records, active means well fitted activation curve with a large enough effect; inconclusive means small, poorly fitted or top-dose-only effect; inactive means no such curve, though single readings can be large or run the other way. Potencies of inconclusive entries are left out as doubtful fits.
# Assay: A quantitative high throughput screen for small molecules that induce DNA re-replication in MCF 10a normal breast cells. Further: nearly all actives have a fitted effect of over 50% in size. On activity, positive = re-replication: % of control where 0% means no effect.
# Conditions: MCF 10A DNA re-replication, Hoechst nuclear intensity, 48 h; activity, positive = re-replication: at 46.1 µM (top of the series)
# Potency means the concentration at half of the fitted maximal effect; tags describe the fitted curve by direction and shape.
SMILES,Potency,"activity, positive = re-replication"
O=C(Nc1ccccc1F)c1cc2c(s1)-c1ccccc1S(=O)(=O)C2,"inconclusive [activator, single point]",–
CCOC(=O)C1CCN(c2cc(C)nc3cc(-c4cccc(F)c4)nn23)CC1,active: 4.11 µM,–
COc1ccc(NS(=O)(=O)c2cc(N)ccc2N2CCCC2)cc1,"inconclusive [activator, single point]",–
O=C(C1CCCN(S(=O)(=O)c2cccc3cccnc23)C1)N1CCN(c2ccccc2F)CC1 (centres undefined),"inconclusive [activator, single point]",–
Cc1c(NC(=O)c2ccc([N+](=O)[O-])o2)cccc1-c1nc2ncccc2o1,"inconclusive [activator, partial curve, poor fit]",–
Cc1nnc(NC(=O)CCS(=O)(=O)c2ccccc2)s1,"inconclusive [activator, single point]",–
O=C(NC(NC(=S)Nc1ccc(Cl)cc1Cl)C(Cl)(Cl)Cl)c1cccc([N+](=O)[O-])c1 (centres undefined),active: 11.6 µM,–
CC1CCN(C(=O)CCCl)c2ccccc21 (centres undefined),–,inactive: -0.276%
CC(C)Cc1nc2oc3c(Cl)ncnc3c2c2c1CCCC2,active: 29.1 µM,–
COc1ccc(C)cc1-n1c(SCC(=O)NCC2CCCO2)nc2c([nH]c3ccccc32)c1=O (centres undefined),–,inactive: 5.89%
Oc1c(N=Nc2ccccn2)ccc2ccccc12,active: 13 µM,–
COc1ccc(OC)c2c(C)cc(N3CCN(C(=O)c4ccc(Cl)cc4)CC3)nc12,"inconclusive [activator, partial curve]",–
CNC(C)C#Cc1ccc2sc3cccc(OC)c3c(=O)c2c1 (centres undefined),"inconclusive [activator, single point]",–
COC(=O)[C@H](Cc1c[nH]c2ccccc12)NC(=O)NCc1ccccc1,–,inactive: 4.7%
CC(C)C(=O)N1CCN(c2ccc(NC(=O)c3ccc4c(c3)OCCO4)cc2Cl)CC1,active: 18.4 µM,–
CC(C)Oc1ccc(C(CCN)C2CCCCC2)cc1 (centres undefined),"inconclusive [activator, partial curve, poor fit]",–
COc1ccccc1OCCNC(=O)c1cccc(S(=O)(=O)NCc2ccccc2)c1,–,inactive: 19.5%
COC1(OC)N=C(N)C2(C#N)C(c3ccc4c(c3)OCO4)C12C#N (centres undefined),"inconclusive [activator, single point]",–
C=CCn1c(SCC(C)=O)nc2scc(-c3ccco3)c2c1=O,"inconclusive [activator, single point]",–
CC1CCN(CC(=O)Nc2ccc(N3CCCCCC3)cc2)CC1,"inconclusive [activator, partial curve, poor fit]",–
COc1ccc(S(=O)(=O)N2CCOCC2)c(Cl)c1Cl,active: 7.31 µM,–
Cc1ccc2c(c1)nnn2C1CCN(S(=O)(=O)c2cccc(S(=O)(=O)N(C)C)c2)CC1,–,inactive: 6.1%

SMILES,Potency,"activity, positive = re-replication"
O=C(c1ccco1)N(CCC(c1ccccc1)c1ccco1)Cc1ccc(F)cc1 (centres undefined),active: 10.3 µM,–
N#Cc1c(-c2cccs2)cc(-c2ccccn2)nc1N,"inconclusive [activator, single point]",–
CCOC(=O)C1CCCN(c2c(NCCN(C)Cc3ccccc3)c(=O)c2=O)C1 (centres undefined),"inconclusive [activator, partial curve, poor fit]",–
O=C(Nc1ccccc1)Nc1cc(Cl)cc(Cl)c1,"inconclusive [activator, single point]",–
COc1cc(-c2n[nH]c(=S)n2C(C)c2ccccc2)cc(OC)c1OC (centres undefined),"inconclusive [activator, partial curve, poor fit]",–
O=C(/C=C/c1ccco1)c1ccc(NC(=O)C23CC4CC(CC(C4)C2)C3)cc1,"inconclusive [activator, single point]",–
Cc1cccc2c1N(CCOc1ccccc1Cl)C(=O)C2=O,"inconclusive [activator, single point]",–
Nn1cnnc1N/N=C/c1ccccc1C(F)(F)F,"inconclusive [activator, partial curve, poor fit]",–
CCOC(=O)c1sc(NC(=O)CSc2n[nH]c(-c3ccccc3)n2)c(C#N)c1C,active: 8.2 µM,–
Cc1ccc(C(=O)NCC(c2ccco2)N2CCc3ccccc3C2)cc1C (centres undefined),"inconclusive [activator, partial curve, poor fit]",–
COc1cccc(-c2cc(C(=O)N/N=C/c3ccco3)c3ccccc3n2)c1,"inconclusive [activator, full curve]",–
COc1cc(OC)c(NC(=O)CC(=O)Nc2cc(Cl)c(OC)cc2OC)cc1Cl,"inconclusive [activator, single point]",–
Oc1cccc2ccc(/C=C/c3c(F)cccc3Cl)nc12,–,inactive: 27.4%
FC(F)(F)c1cccc(CNc2ncccc2-c2nc3cc(Cl)ccc3o2)c1,"inconclusive [activator, single point]",–
CCC(C)(C)c1ccc(CC(C)CN2C[C@@H](C)O[C@@H](C)C2)cc1 (some centres undefined),"inconclusive [activator, full curve]",–
CCC(=O)NC(=S)NNC(=O)c1ccc([N+](=O)[O-])cc1,–,inactive: 0.0197%
Cc1nn(Cc2ccc(C(=O)Nc3nccs3)cc2)c(C)c1Cl,active: 5.8 µM,–
Cc1ccc2[nH]cc(CCNC(=O)c3ccco3)c2c1,–,inactive: 5.7%
Cc1ccc(NC(=S)Nc2ccc(C(C)C)cc2)cc1S(=O)(=O)N1CCCCCC1,"inconclusive [activator, partial curve]",–
CS(=O)(=O)Cc1ccc(C(=O)Nc2cccc(-c3nc4ccccc4[nH]3)c2)cc1,"inconclusive [activator, partial curve, poor fit]",–
COCCn1c(=N)c(C(=O)NCCc2ccc(OC)cc2)cc2c(=O)n3cccc(C)c3nc21,"inconclusive [activator, partial curve]",–
COC(=O)CN1C(=O)C(O)(CC(=O)c2cccc(Br)c2)c2ccccc21 (centres undefined),"inconclusive [activator, partial curve, poor fit]",–
